Values joined by “and” are separate entries in the source; they are usually repeats but may differ in a detail not shown here. Identical values can stand only once. Screen size: about 270,000 compounds; about 5,800 (2.1%) were called active. This list was built around the results that the source calls inconclusive (neither active nor inactive); the mix of calls is not that of the screen. Calls come from the whole dose curve; as a rule, active = well fitted inhibition curve with a large enough effect; inconclusive = small, poorly fitted or top-dose-only effect; inactive = flat fitted curve, though single readings scatter. Where the call is inconclusive, the potency comes from a doubtful curve fit.
Target: Microtubule-associated protein tau (Homo sapiens) (UniProt P10636)
Assay: qHTS for Inhibitors of Tau Fibril Formation, Thioflavin T Binding; note: nearly all actives have a fitted effect of over 55% in size
Details: recombinant tau K18 P301L (four-repeat tau fragment), heparin-induced fibrillization, ThT fluorescence; series mostly up to 57.4 µM; activity, negative = inhibition: at the top concentration
Summary of the method: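 Recombinant human tau K18 fragment […] carrying P301L, 15 uM unlabeled plus 0.24 uM Alexa 594-labeled, was fibrillized with 20 uM heparin in 100 mM sodium acetate pH 7 for 6 hr at 37 C; 30 uM ThT fluorescence read after 1 hr.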
% is set by controls: 0 for no effect and ±100 for the full control effect; potency is the fitted concentration of half-maximal effect; tags give direction and shape of the fitted curve.

Sequence of UniProt P10636 (P10636 whole entry, looked up): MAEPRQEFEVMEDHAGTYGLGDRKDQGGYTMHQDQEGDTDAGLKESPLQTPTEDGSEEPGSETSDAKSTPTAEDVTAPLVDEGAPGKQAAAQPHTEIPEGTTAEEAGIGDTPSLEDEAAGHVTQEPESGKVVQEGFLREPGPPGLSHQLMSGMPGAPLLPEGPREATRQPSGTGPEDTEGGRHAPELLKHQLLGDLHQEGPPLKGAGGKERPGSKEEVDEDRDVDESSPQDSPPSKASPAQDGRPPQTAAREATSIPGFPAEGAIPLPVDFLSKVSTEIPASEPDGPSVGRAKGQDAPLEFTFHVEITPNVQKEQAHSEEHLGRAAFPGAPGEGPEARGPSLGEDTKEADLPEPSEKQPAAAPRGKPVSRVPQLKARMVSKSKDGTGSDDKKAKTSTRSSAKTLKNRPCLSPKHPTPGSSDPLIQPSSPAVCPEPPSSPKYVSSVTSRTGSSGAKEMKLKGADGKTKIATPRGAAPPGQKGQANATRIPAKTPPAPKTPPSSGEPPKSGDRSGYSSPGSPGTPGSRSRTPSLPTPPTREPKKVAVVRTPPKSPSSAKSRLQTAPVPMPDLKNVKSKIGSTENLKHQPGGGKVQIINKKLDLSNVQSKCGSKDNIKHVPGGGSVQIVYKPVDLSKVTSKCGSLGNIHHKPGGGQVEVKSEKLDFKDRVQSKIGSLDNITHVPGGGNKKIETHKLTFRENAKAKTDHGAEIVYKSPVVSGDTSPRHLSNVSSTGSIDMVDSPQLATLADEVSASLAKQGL

| Compound | Potency | activity, negative = inhibition |
| --- | --- | --- |
| CN(C)/C=C/C(=O)/C=C/c1ccc(Cl)cc1Cl | inconclusive: 28.2 µM [inhibitor, partial curve] | – |
| Cc1ccc2ncnc(Nc3ccc(C)c(C)c3)c2c1 | inconclusive: 22.4 µM [inhibitor, partial curve, poor fit] | – |
| O=C(Nc1ccc(-c2nnc(-c3ccco3)o2)cc1)C(c1ccccc1)c1ccccc1 | inconclusive: 7.94 µM [inhibitor, full curve, poor fit] | – |
| COc1ccc2c(c1)C(c1ccccc1C)CC(=O)O2 (stereo unspecified) | – | inactive: -9.42% [at 81.4 µM] |
| Cc1csc2nc(-c3cccc(NC(=O)C(C)C)c3)cn12 | – | inactive: -4.96% |
| O=C(/C=C/c1ccc(S(=O)(=O)N2CCOCC2)cc1)OCC(=O)c1ccc([N+](=O)[O-])cc1 | inconclusive: 10 µM [inhibitor, partial curve] | – |
| Cc1cccc(CCNC(=O)c2sc3nc4n(c(=O)c3c2C)CCCC4)c1 | inconclusive: 35.5 µM [inhibitor, single point] | – |
| NNC(=O)c1cnn(Cc2ccccc2)c1N | – | inactive: 3.36% |
| COC(=O)c1ccc(C(/C=C/[C@@H](C)C(=O)N[C@H](C)CO)NC(=O)OCc2ccccc2)cc1 (stereo partly specified) | – | inactive: -4.91% |
| COc1ccc(C2CC(=O)Nc3c2c(C)nn3-c2nncc(-c3ccc(C)cc3)n2)c(OC)c1OC (stereo unspecified) | inconclusive: 8.91 µM [inhibitor, partial curve] | – |
| CSc1cccc(CN2CCCC(CO)(Cc3cccc(Cl)c3)C2)c1 (stereo unspecified) | inconclusive: 39.8 µM [inhibitor, single point] | – |
| Oc1ccc(Cl)cc1C1=Nc2ccccc2N=C(c2ccco2)C1 | – | inactive: 2.41% |
| Cc1ncc(CO)c(/C=N/NC(=O)c2ccccc2Br)c1O | – | inactive: -7.35% |
| CCOC(=O)c1c(C)nc2c3ccccc3ccn12 | inconclusive: 2.24 µM [inhibitor, partial curve, poor fit] | – |
| O=C(CSc1nnc(-c2ccc(C(F)(F)F)cn2)s1)c1ccccc1 | inconclusive: 0.708 µM [inhibitor, full curve, poor fit] | – |
| Cc1nc2sc(C(N)=O)c(N)c2c2c1CCCC2 | inconclusive: 39.8 µM [inhibitor, single point] | – |
| CCCOc1ccc(OCCSc2ncccn2)cc1 | inconclusive: 14.1 µM [inhibitor, partial curve] | – |
| O=C(Nc1ccc(-c2cn3ccccc3n2)cc1)c1cccs1 | inconclusive: 15.8 µM [activator, partial curve] | – |
| CC1CC/C(=C\c2ccc3c(c2)OCO3)C(=O)/C1=C/c1ccc2c(c1)OCO2 (stereo unspecified) | inconclusive: 10 µM [inhibitor, partial curve] | – |
| COC(=O)CSc1nc(NCC(C)C)nc(N2CCOCC2)n1 | – | inactive: -3.02% |
| C=CCN1C(=O)/C(=C/c2ccc(OCC(=O)O)cc2)S/C1=N/c1nccs1 | inconclusive: 20 µM [inhibitor, single point] | – |
| COc1cc(NC(=O)C2=C(N3CCOCC3)/C(=C\c3ccc(Br)cc3)CC2)cc(OC)c1OC | inconclusive: 10 µM [inhibitor, partial curve] | – |

| Compound | Potency | activity, negative = inhibition |
| --- | --- | --- |
| CCc1cc2c(SCC(=O)c3ccc(C)cc3)ncnc2s1 | – | inactive: -6.46% |
| O=C(C[n+]1cccc(CNC(=O)c2ccc(OC(F)F)cc2)c1)Nc1ccc(SC(F)F)cc1 | inconclusive: 25.1 µM [activator, single point] | – |
| C=CCn1c(SCC(=O)OC)nc2sc3c(c2c1=O)CCN(C)C3 | inconclusive: 20 µM [inhibitor, partial curve] | – |
| COc1ccccc1N1N=C(C(=O)c2ccccc2)C2C(=O)N(c3ccc(Br)cc3)C(=O)C21 (stereo unspecified) | inconclusive: 17.8 µM [inhibitor, partial curve] | – |
| O=C(NNC(=O)c1ccc(Br)o1)c1ccc(NC(=O)c2ccccc2)cc1 | inconclusive: 2.24 µM [inhibitor, partial curve] | – |
| Brc1ccc2oc3c(N4CCOCC4)ncnc3c2c1 | inconclusive: 25.1 µM [inhibitor, partial curve, poor fit] | – |
| Cc1cccc(OCC(=O)N(Cc2cccs2)c2ccc(Cl)cc2)c1C | – | inactive: -7.91% |
| O=C(N/N=C/c1c[nH]c2ccccc12)C1CC1c1ccccc1 (stereo unspecified) | inconclusive: 22.4 µM [inhibitor, partial curve] | – |
| COc1ccccc1-n1c(SCC(=O)NC2CCS(=O)(=O)C2)nc2cc([N+](=O)[O-])ccc21 (stereo unspecified) | – | inactive: -1.15% |
| O=C1C2=CC[C@@H]3C(=O)N(c4ccc(F)cc4F)C(=O)[C@H]3[C@H]2[C@H](O)[C@H]2O[C@H]12 | active: 4.47 µM | – |
| CCOC(=O)c1sc(S(C)=O)c2c1CCc1conc1-2 (stereo unspecified) | inconclusive: 25.1 µM [inhibitor, partial curve] | – |
| CCCCCS(=O)(=O)c1oc(-c2cccs2)nc1S(=O)(=O)c1ccc(C)cc1 | inconclusive: 3.98 µM [inhibitor, full curve, poor fit] | – |
| Cc1cccnc1NCc1ccc(O)c2ncccc12 | inconclusive: 14.1 µM [inhibitor, partial curve] | – |
| CCOc1ccc(Br)cc1S(=O)(=O)Nc1cccc(S(=O)(=O)N(C)C)c1 | – | inactive: -5.7% |
| CC(C)(C)OC(=O)N1CCC(c2c(C(=O)N3CCC(c4ccccc4)C3)cnn2-c2cccc(Cl)c2)CC1 (stereo unspecified) | inconclusive: 22.4 µM [inhibitor, partial curve, poor fit] | – |
| O=C(Nc1ccc([N+](=O)[O-])cc1)c1ccc(Cn2cc([N+](=O)[O-])cn2)cc1 | inconclusive: 12.6 µM [inhibitor, partial curve] | – |
| Cc1ccc(C)c(-n2c(Cc3cccs3)n[nH]c2=S)c1 | – | inactive: -8.12% |
| O=C(CSc1nc2ccccc2c(=O)n1Cc1ccco1)c1ccccc1 | inconclusive: 39.8 µM [inhibitor, single point] | – |
| COc1ccc(N(C)C(=O)CCn2cnc3onc(-c4ccc(F)cc4)c3c2=O)c(OC)c1 | – | inactive: -17% |
| Cc1cccc(/C=C2\CS/C(=C\c3cccc(C)c3)C2=O)c1 | active: 3.55 µM | – |
| Cc1ccc2nc(N3C(=O)C(O)=C(C(=O)c4ccco4)C3c3cccs3)sc2c1 (stereo unspecified) | inconclusive: 17.8 µM [inhibitor, partial curve] | – |
| Cc1ccc(C(=O)Nc2ccc(-c3cn4cccnc4n3)cc2)cc1C | inconclusive: 25.1 µM [activator, single point] | – |

| Compound | Potency | activity, negative = inhibition |
| --- | --- | --- |
| CC(=O)c1cccc(-n2nnnc2SCC(=O)Nc2cccc(NC(=O)c3ccco3)c2)c1 | inconclusive: 15.8 µM [inhibitor, partial curve] | – |
| CCOc1ccccc1NC(=O)c1nn(-c2ccc(C)cc2)c(=O)n(C)c1=O | – | inactive: 6.39% |
| COc1ccc(-c2noc(COc3ccc4c(c3)OCO4)n2)cc1OC | inconclusive: 4.47 µM [inhibitor, partial curve] | – |
| COC(=O)c1c(-c2cccs2)csc1NC(=O)COc1ccc(C(C)(C)C)cc1 | inconclusive: 31.6 µM [inhibitor, single point] | – |
| COC(=O)c1ccc(OC(=O)CCc2cc(OC)c(OC)c(OC)c2)cc1 | inconclusive: 22.4 µM [inhibitor, partial curve] | – |
| COc1ccc(C2=NN(CC(=O)NCCc3ccc(OC)c(OC)c3)C(=O)CC2)cc1 | – | inactive: -1.22% |
| COc1ccc(N(C)C(=O)c2cn(C3CCCCC3)c(=O)c3c2c2ccccc2n3C)cc1 | – | inactive: -13.2% |
| CCOC(=O)C1=C(C)NC2=C(C(=O)c3ccccc32)C1c1cccc2ccccc12 (stereo unspecified) | inconclusive: 14.1 µM [inhibitor, partial curve] | – |
| COc1ccc(Br)cc1CN(C)C(C)C(=O)Nc1cccc(C(C)=O)c1 (stereo unspecified) | – | inactive: -15.7% |
| COc1ccc(-c2nc3ccc(N4CCCC4)cc3c(=O)[nH]2)cc1OC | active: 2.24 µM | – |
| C/C(=N/NC(=O)c1ccc(Br)o1)c1cccc(NC(=O)c2ccc(C)o2)c1 | inconclusive: 3.98 µM [inhibitor, full curve] | – |
| COC(=O)c1ccc2c(=O)[nH]c(CN3c4ccccc4CC3C)nc2c1 (stereo unspecified) | inconclusive: 28.2 µM [inhibitor, partial curve] | – |
| O=c1cc(-c2ccccc2Cl)oc2c([N+](=O)[O-])c(O)cc(O)c12 | inconclusive: 15.8 µM [inhibitor, partial curve] and inconclusive: 20 µM [inhibitor, partial curve] | – |
| O=c1c(-c2ccco2)[n+]([O-])c2ccccc2n1OCc1c(F)cccc1F | inconclusive: 10 µM [inhibitor, partial curve, poor fit] | – |
| Cc1ccc(NC(=S)Nc2ccc3cn[nH]c3c2)cc1C | inconclusive: 11.2 µM [inhibitor, partial curve, poor fit] | – |
| Cn1c(=O)[nH]c(=O)c2c1nc([N+](=O)[O-])n2Cc1ccccc1 | inconclusive: 25.1 µM [inhibitor, single point] | – |
| N#CCC(=O)c1sccc1-n1cccc1 | inconclusive: 3.16 µM [inhibitor, full curve, poor fit] | – |
| Nc1nccc(/C=C/c2c(Cl)cccc2Cl)n1 | inconclusive: 0.0708 µM [inhibitor, full curve, poor fit] | – |
| COc1ccc(Cc2nnc(NS(=O)(=O)c3ccc(Cl)cc3)s2)cc1OC | inconclusive: 39.8 µM [inhibitor, single point] | – |
| Cc1nn(-c2ccccc2)c2c1C1(C(=O)N3c4c(cccc41)C(C)CC3(C)C)C(C#N)=C(N)O2 (stereo unspecified) | inconclusive: 25.1 µM [inhibitor, partial curve] | – |
| CCCn1c(/C=N/Nc2nc3ccccc3[nH]2)nc2ccccc21 | inconclusive: 14.1 µM [inhibitor, partial curve] | – |
| Cc1ccc(-c2nc3sc(CCNC(=O)c4ccc(Br)o4)c(C)n3n2)cc1 | inconclusive: 3.98 µM [inhibitor, full curve] | – |

Source: PubChem BioAssay AID1460 (National Center for Advancing Translational Sciences (NCATS), 2008)
